From PubChem BioAssay AID686979 (National Center for Advancing Translational Sciences (NCATS), 2013)
Values joined by “and” are separate entries in the source; they are usually repeats but may differ in a detail not shown here. Identical values can stand only once. Out of some 420,000 compounds screened, about 50,000 (12%) were called active. Inconclusive means that the source gave no clear call. Such entries were picked first, then a sample of the others. Calls follow the shape of the dose curve; as a rule, active = well fitted inhibition curve with a large enough effect; inconclusive = small, poorly fitted or top-dose-only effect; inactive = flat fitted curve, though single readings scatter. No potency is given beside an inconclusive call; the fits are too rough. The source holds several records for some structures; these can differ, active in one and inactive in another.

assay: qHTS for Inhibitors of human tyrosyl-DNA phosphodiesterase 1 (TDP1): qHTS in cells in presence of CPT; conditions: chicken DT40 Tdp1-/-;hTDP1 cells + 20 nM CPT, ATP luminescence, 48 h; series mostly up to 46.2 µM; also: nearly all actives have a fitted effect of over 55% in size
How it was run: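 Chicken DT40 Tdp1-/- cells complemented with human TDP1, 400 cells/well, exposed to compounds plus 20 nM camptothecin for at least 48 h at 37 C; viability read as ATP content by CellTiter-Glo luminescence.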
Potency is read from the fitted curve at half-maximal effect; tags tell the direction and shape of the fitted curve.

| SMILES | Potency |
| --- | --- |
| COc1cc2c(cc1O)C[C@H]1c3c(cc(OC)c(O)c3-2)CCN1C | inconclusive [inhibitor, single point] |
| CCCCCc1nc2ccccc2c(=O)n1-c1ccccc1[N+](=O)[O-] | inconclusive [inhibitor, single point] |
| COc1ccc(CCNC(=O)CCc2c(C)nc3c(-c4ccc(F)cc4)c(C)nn3c2C)cc1OC | active: 8.2 µM |
| CC[N+](C)(CC)CCC[n+]1c(-c2ccccc2)c2cc(N)ccc2c2ccc(N)cc21 | active: 2.58 µM |
| O=C(O)c1ccccc1Nc1cccc(C(F)(F)F)c1 | active: 11.6 µM |
| CC1C(=O)OC2C1CC[C@@]1(C)C=CC(=O)[C@@]3(C)O[C@@]213 (some centres undefined) | inconclusive [inhibitor, single point] |
| COc1cc(C2C(C#N)=C(N)Oc3cc(O)ccc32)cc(OC)c1OC (centres undefined) | active: 1.03 µM |
| C[C@H]1CC[C@@]2(C)[C@@H](CC[C@@H]3[C@@H]2CC[C@]2(C)[C@@H](O)CC[C@@H]32)C1 | inconclusive [inhibitor, single point] |
| Cc1nnc2n1-c1sc(Br)cc1C(c1ccccc1Cl)=NC2 | inactive |
| O=C(CNC(=O)OCc1ccccc1)Nc1ccc(Br)cc1C(=O)c1ccccc1 | inconclusive [inhibitor, single point] |
| O[C@H]1C[C@H](c2ccccc2)N(CC2CCCCC2)C[C@@H]1n1cc(-c2ccc(F)cc2)nn1 | active: 23.1 µM |
| Cc1cccc(-n2c(/C=C/c3ccccn3)nc3ccccc3c2=O)c1 | active: 23.1 µM |
| CCOP(=O)(OCC)C(Nc1cccc([N+](=O)[O-])c1)c1ccc(OC)cc1 (centres undefined) | inconclusive [inhibitor, partial curve] |
| CC(Cc1ccccc1)NCc1ccccc1O (centres undefined) | inactive |
| COC(=O)C1(C(=O)OC)C[C@H](c2ccc(OC)cc2)N(Cc2ccccc2OC)[C@@H]1c1cccs1 | active: 16.4 µM |
| O=C1c2ccccc2-c2cccc3cccc1c23 | inactive and active: 20.6 µM |
| CCc1ccc(NC(=O)c2cnc3sc(N4CCCC4)nn3c2=O)cc1 | inconclusive [inhibitor, full curve] |
| Cc1cccc(OCC(=O)N2CCN(Cc3ccc([N+](=O)[O-])cc3)CC2)c1 | inconclusive [inhibitor, single point] |
| CCCc1nnc(NC(=O)CCC(=O)N2CCN(Cc3ccc(OC)c(F)c3)CC2)s1 | inconclusive [inhibitor, single point] |
